In all, about 46,000 compounds went through this assay and about 60 (0.1%) were called active. Another 3% or so got no clear call; they are omitted. The call rests on the fitted dose curve; in most records, active means well fitted inhibition curve with a large enough effect; inconclusive means small, poorly fitted or top-dose-only effect; inactive means no such curve, though single readings can be large or run the other way. The list shows a part of the results.
Assay: Primary qHTS assay for Inhibitors of ovarian cancer metastasis using an organotypic tumor microenvironment (TME) model. Further: nearly all actives have a fitted effect of over 65% in size.
Details: SKOV3ip1-GFP adhesion/invasion on 3D omental model, fluorescence; series mostly up to 45.8 µM; activity change, negative = inhibition: at the top concentration
Text: PI: Ernst Lengyel MD., Ph.D. Department of Obstetrics and Gynecology, Section of Gynecologic Oncology University of Chicago Medicine, Chicago, Illinois. The tumor microenvironment (TME) is a key determinant of metastatic efficiency. We performed a quantitative high-throughput screen (qHTS) of diverse medicinal chemistry tractable scaffolds (44,420 compounds) and pharmacologically active small molecules (386 compounds) using a layered organotypic, robust assay representing the ovarian cancer metastatic TME. This 3D model contains primary human mesothelial cells, fibroblasts, and extracellular matrix, to which fluorescently labeled ovarian cancer cells are added. Initially, 100 compounds inhibiting ovarian cancer adhesion/invasion to the 3D model in a dose-dependent manner were identified. Of those, eight compounds were confirmed active in five high-grade serous ovarian cancer cell lines and were further validated in secondary in vitro and in vivo biological assays. […] Specifically, NCGC00117362 and PP-121 inhibited ovarian cancer adhesion, invasion, and proliferation, whereas milciclib inhibited ovarian cancer invasion and proliferation. […] To evaluate the clinical potential of NCGC00117362, structure - activity relationship studies were performed. […] The three compounds identified have promise as therapeutics for prevention and treatment of ovarian cancer metastasis.
PROTOCOL TABLE (as described by Inglese J, Shamu CE and Guy RK. 2007) SEQUENCE No. (e.g., 1, 2, 3, etc.); […] (e.g., Cells, Incubation, Reagent, etc.); VALUE; DESCRIPTION. 1; Cells; 4 uL; primary human omental fibroblast, black, clear bottom, low base, 1536-well Aurora assay plate. 2; Incubation; 48 hr; 37C. 3; Cells; 3 uL; 1,200 SKOV3ip1-GFP cells. 4; Compounds; 23nL; acoustic dispenser. 5; Incubation; 2 hr; room temperature. 6; Incubation; 16 hr; 37C. 7; Wash; 5 uL; 1x PBS. 8; Fixing; 5 uL; 4% paraformaldehyde (PFA). 9; Incubation; 15 min; room temperature 10; Wash, 5 uL; 1x PBS. 11; Detection; Fluorescence, excitation filter 488 nm, emission filter 509 nm. NOTES (numbers refer to Sequence numbers above) 1. For the 1,536-well format, 40 primary human omental fibroblasts and 400 mesothelial cells were seeded with 0.02 µg fibronectin and 0.02 µg collagen type I in 4 µL of growth media (2.3 mm2; Supplementary Fig. S1A). 2. Assay plates were incubated for 48 hours at 37 C. 3. After incubation, 1,200 SKOV3ip1-GFP were seeded in 3 µL of serum-free media (growth media minus FBS) on top of primary human omental cells. 4. Compounds or controls were added to each well immediately after the addition of the cancer cells. Compounds were screened in four doses (0.36-46 µmol/L), and the plates contained the positive control (Tomatine) in eight doses (0.035-75 µmol/L) and DMSO (equal volume controls) 5 - 6. The plates were incubated at room temperature for 2 hours and then at 37 degrees C for 16 hours. 7 - 10. Following incubation, the media were aspirated and each well washed with PBS (5 µL) and then fixed with 4% paraformaldehyde (PFA; 5 µL). After 15 minutes, the PFA solution was aspirated, PBS (5 µL) was added. 11. The number of GFP-labeled cells analyzed using a fluorescent cytometer TTP LabTech Acumen eX3 using 488 nm excitation filter and 509 nm emission filter. Data was normalized to the DMSO treated for negative and Tomatine treated wells for positive control. REFERENCES: Inglese J, Shamu CE and Guy RK, Reporting data from high throughput screening of small molecule libraries, Nature Chemical Biology, 2007, 3(8): 438-441. doi.org/10.1038/nchembio0807-438. Yasgar A, Shinn P, Jadhav A, Auld DS, Michael S, Zheng W, Austin CP, Inglese J and Simeonov A, Compound Management for Quantitative High-Throughput Screening. J. Assoc. Lab. Auto., 2008, 13: 79-89. doi: 10.1016/j.jala.2007.12.004.

Activity change, negative = inhibition, inactive:
COc1cccc2cc(-c3nnc(Nc4c(F)cccc4F)s3)c(=O)oc12 -0.64%, CCC(=O)c1cc2c(cc1NC(=O)c1ccccc1F)OCCO2 -29.9%, CCN(CC)c1sc(S(=O)(=O)c2ccccc2)nc1S(=O)(=O)c1ccc(C)cc1 3.25%, CC1=C(C(=O)Nc2ccc(C)cc2Cl)C2(CCCCCC2)OC1=O 0.624%, CCOc1ccc(CCNC(=O)c2ccc(-n3c(C)cc4c3CCC(C)C4)cc2)cc1OCC (configuration not stated) -3.7%, Cc1ccc(C)c2sc(N3CCN(C(=O)C(C)(C)C)CC3)nc12 10.2%, O=C(CSc1nc2c([nH]c3ccccc32)c(=O)n1-c1ccccc1)Nc1ccc2c(c1)OCCO2 5.34%, COc1ccc(NC(=O)Cn2ncc3c2-c2ccccc2OC3)cc1Cl 5.73%, Cc1cccc(NC(=O)c2sc3nc(N4CCOCC4)c4c(c3c2N)CC(C)(C)OC4)c1 -5.73%, CC(=O)NCCn1c(SCC(=O)Nc2ccc(C)cc2)nc2ccccc2c1=O -5.38%, CC(C)(C)c1ccc(-c2nc(SCC(=O)Nc3ccc(Cl)cc3)[nH]c(=O)c2C#N)cc1 2.55%, CCCCNC(=O)C1CCC(CNS(=O)(=O)c2ccc(Cl)cc2)CC1 (configuration not stated) -5.96%, CNC1CCC(N(Cc2cccc(-c3ccncc3)c2)C(=O)c2sc3ccccc3c2Cl)CC1 (configuration not stated) -22.3%, NC(=O)c1ccc2nc(-c3ccc(Oc4ccc(Cl)cc4)cc3)[nH]c2c1 19.6%, Cc1ccc(Cl)cc1-n1ncc2c(N3CCCCCC3)ncnc21 3.95%, Cc1ccccc1CN1C(=O)c2ccccc2Sc2ccc(C(=O)NC3CCCC3)cc21 -0.474%, COc1ccc(OC)c(/C=C/C(=O)Nc2ccc(C(=O)OCCC(C)C)cc2)c1 0.239%, O=S(=O)(NCc1ccc(Cl)cc1)c1ccc(-c2cnc(C3CC3)o2)cc1 25.4%, CCN(Cc1ccccc1)c1ncnc2c1nnn2C 2.57%, CCc1cnc2c(c1SCC(=O)c1ccc(OC)cc1)c(=O)n(C)c(=O)n2C -0.572%, COc1cccc(-n2c(-c3cccc(F)c3)nc3c(cnn3-c3ccc(C)cc3)c2=O)c1 25.4%, CCc1ccc(S(=O)(=O)c2nnn3c2nc(Nc2ccc(F)cc2)c2cc(Cl)ccc23)cc1 -7.37%, O=C(Nc1cccnc1)c1cc(-c2cccc(Cl)c2)on1 -10.3%, Nc1ccc(S(=O)(=O)Nc2ncccn2)cc1 -4.63%, Cc1ccc(C(=O)Nc2nnc(S(=O)(=O)N3CCc4ccccc43)s2)cc1 7.31%, COc1ccc(NC(=O)c2cc(CN3CCCC3)on2)cc1Cl 8.7%, CC(C)Oc1ccc(CNC(=O)c2cccc(NC(=O)N3CCSc4ncccc43)c2)cc1 -2.63%, CCOC(=O)CSc1nc2sc3c(c2c(=O)n1-c1ccccc1)CCC(C(C)(C)C)C3 (configuration not stated) -0.119%, CCOc1ccc(CCNC(=O)CCSCc2ccc(Cl)cc2)cc1OCC -12.4%, CCc1ccc2oc(-c3cc(NC(=O)c4cccnc4)cc(C)c3O)nc2c1 0.437%, COc1ccc(CC(=O)NCc2ccc3c(c2)CCN3C(=O)c2ccc(Cl)cc2)cc1 -16.8%, CCOC(=O)c1sc(NC(=O)c2cc3nc(-c4ccccc4)cc(C(F)(F)F)n3n2)c(C(=O)OCC)c1C 2.3%, CCOC(=O)c1cc(-c2ccccc2)n(-c2cccc(C(=O)Nc3cc(OC)cc(OC)c3)c2)c1C -8.41%, Cc1cc(C)cc(Oc2c(C(F)(F)F)oc3cc(OCC(=O)NC4CCCCC4)ccc3c2=O)c1 4.17%, O=C(Nc1cccc(Br)c1)N1CCC(CN2CCCCCC2)CC1 11%, Cc1ccc(CNC(=O)CSc2c(C)cnc3c2c(=O)n(C)c(=O)n3C)cc1 -1.3%, CCC1CN(C(=O)N2CCC(C(=O)NCCc3ccc(OC)c(OC)c3)CC2)c2ccccc2O1 (configuration not stated) -9.29%, C=CCc1cc(OC)c(O)c(C(=O)NCCO)c1 -3.92%, CCc1cccc(NC(=O)Cn2c(=O)n(CCCCCC(=O)NCc3ccc(F)cc3)c(=O)c3sccc32)c1 2.39%, CCn1cc(C(=O)OCC(=O)Nc2cc(Cl)ccc2C)c(=O)c2ccc(C)nc21 -4.24%, CCCCOc1ccc(C2C(=O)N(C3CCCCC3)CC(=O)N2C2CCCCC2)cc1 (configuration not stated) 9.67%, Cc1ccc(NC(=O)CN2C(=O)C(c3ccc(F)cc3)=NC23CCCCCC3)c(C)c1 -0.579%, CCCCCCc1c(C)c2c(cc(C)c3c(C)coc32)oc1=O -7.72%, CCOC(=O)c1ccccc1NC(=O)CN(c1ccccc1)S(=O)(=O)c1ccc(OCC)cc1 1.06%, Cc1cccc(NC(=O)Nc2cccs2)c1C -2.1%, COc1ccc(C2C=C(c3ccccc3)Nc3nc(NC(C)=O)nn32)cc1 (configuration not stated) 20.9%, O=C(CCc1cn(Cc2ccc(F)cc2)c2ccccc12)NC1CCCCC1 2.22%, Cc1cc(C)cc(NC(=O)Cn2nnc(-c3ccccc3F)n2)c1 -19.1%, CC1=C(c2ccc(C)c(C)c2)S(=O)(=O)N(Cc2ccc(C(=O)NCc3ccccc3F)cc2)C1=O 7.69%, O=C(NCCc1ccccc1)c1c[nH]c2ccc(S(=O)(=O)Nc3ccc(F)cc3F)cc2c1=O -4.67%, CCCC(=O)Nc1cc2nn(-c3ccc(OC)cc3)nc2cc1C 5.96%, Cc1ccc(C)c(OCC(=O)Nc2sc3c(c2C#N)CCCC3)c1C -4.43%, COc1cccc(NC(=O)C2CCCN(c3ncnc4onc(-c5ccc(F)cc5)c34)C2)c1 (configuration not stated) 1.87%, COc1ccc(C(=O)CC2(O)C(=O)N(Cc3ccccc3)c3ccc(Br)cc32)cc1 (configuration not stated) -6.33%, CCc1ccc(C(=O)c2cn(CC(=O)NCCc3ccccc3)c3nc(C)ccc3c2=O)cc1 1.43%, COc1ccc(CNC(=O)CN2N=C(c3ccc(Cl)cc3)CCC2=O)cc1 -1.33%, COc1ccc(-c2nn(C)c3sc(C(=O)NCCN(C)C)cc23)cc1OC 2.69%, Cc1cc(C)c(NC(=O)Cn2c(=O)n(CCC(C)C)c(=O)c3cccnc32)c(C)c1 3.19%, Cc1ccc(C2=Nc3ccccc3N=C(c3ccc(F)cc3)C2)c(O)c1 5.02%, Cc1ccc(N2CC(NC(=O)CCCc3ccccc3)CC2=O)cc1 (configuration not stated) -5.41%, COc1ccc(Cn2c(SCc3ccc(C(=O)NCc4ccc(C)cc4)cc3)nc3cccnc32)cc1 2.05%, O=C(NCCSc1c[nH]c2ccccc12)c1ccc(Cl)cc1 10.3%, COc1ccc(CNC(=O)c2ccc(CN3C(=O)C(C)=C(c4ccc(C)cc4)S3(=O)=O)cc2)cc1 -2.6%, Cc1cc(O)c2c(C)c(CC(=O)NCc3ccccc3Cl)c(=O)oc2c1 -0.396%, Cc1ccc(Cl)cc1N1CCN(c2nc3ccc(C(=O)c4ccccc4)cc3n3cnnc23)CC1 9.75%, O=C(Cn1nc(Cc2cccnc2)c2ccccc2c1=O)N1CCN(c2ccccc2F)CC1 -1.53%, CCc1nc(SC)ncc1C(=O)NCc1cccc(Br)c1 -18.1%, COc1ccc(CNC(=O)c2cc(-c3ccc(Br)s3)nc3ccccc23)c(OC)c1 -5.84%

outcome, inactive:
COc1ccc([C@@H]2CNC(=O)C2)cc1OC1CCCC1, CCN(CCCNC(=O)c1cc2c(Cl)nc3ccccc3c2s1)Cc1ccccc1, COc1ccccc1C(=O)Nc1ccc(OCc2cc(=O)n3ccsc3n2)cc1, CCc1ccc(S(=O)(=O)N(C(=O)Oc2ccccc2)c2ccc3oc(C)c(C(=O)OC)c3c2)cc1, CCCCN(CCCC)C(=O)C1CCN(S(=O)(=O)c2cccc3nsnc23)CC1, COc1ccccc1CNC(=O)CC(c1ccc(OC)c(OC)c1)N1Cc2ccccc2C1=O (configuration not stated), Cc1c(-c2ccc(Cl)cc2)c(=O)oc2ccc(OC(=O)N3CCOCC3)cc12, O=C(O)c1cccc(Nc2ncnc3scc(-c4ccccc4)c23)c1, CCC(C)NC(=O)CCSc1nc(-c2ccc(OC)cc2)cc(C(F)(F)F)n1 (configuration not stated), O=C(NCc1ccc(F)cc1)c1cc(-c2ccc(Cl)cc2)n[nH]1, Cc1ccccc1C(=O)Oc1c(Sc2ccccc2)c(C)nn1C(C)(C)C, Cc1cccc(Cc2c(C)nc3nc(SCC(=O)NCc4ccccc4)nn3c2C)c1, CCC(=O)N1CCc2cc(Br)cc(S(=O)(=O)N3CCCC(C(=O)Nc4cccc(F)c4)C3)c21 (configuration not stated), CCOc1ccc(NC(=O)c2oc3ccccc3c2NC(=O)c2cc(C)cc(C)c2)cc1, COc1ccc(CCNC(=O)Cn2ncc3c(=O)oc4ccccc4c32)c(OC)c1, CCOc1ccc(NC(=O)c2cnc(Nc3ccccc3OC)c3ccccc23)cc1, Cn1c(=O)oc2cc(S(=O)(=O)N3CCC(C(=O)Nc4ccc(F)c(Cl)c4)CC3)ccc21, COc1cccc(CNC(=O)CN(c2ccc(C(C)C)cc2)S(=O)(=O)c2c(C)noc2C)c1, Cc1ccc(C)c(N2CCN(C(=O)C3CCC(CNS(=O)(=O)c4cccs4)CC3)CC2)c1 (configuration not stated), CCOC(=O)N1CCc2c(sc3c2c(=O)n(-c2ccc(CC)cc2)c(=O)n3Cc2cccc(Cl)c2)C1, Cc1ccc(C)c(N2CCN(C(=O)c3cc4cc5ccc(C)cc5nc4o3)CC2)c1, Cc1ccc(NC(=O)C2CCN(S(=O)(=O)c3cccc4nsnc34)CC2)cc1, CCn1nc(C)c2c(-c3ccccc3)cc(=O)n(C(C)C(=O)Nc3ccc(OC)c(OC)c3)c21 (configuration not stated), N#C/C(=C\c1ccc(O)cc1)C(=O)NCC1CCCO1 (configuration not stated), CCC1CCCCN1CCCNC(=O)c1ccc2c(c1)c(C)c(C)n2CC (configuration not stated), CCOC(=O)c1c(Nc2ccc(C)c(C)c2)nnc(-c2ccccc2)c1-c1ccccc1, CCN(c1ccccc1C)S(=O)(=O)c1nnc(NC(=O)c2ccc(OC)c(OC)c2)s1, O=C(NCCc1ccccc1)c1ccc2c(c1)N(Cc1ccc(Cl)cc1)C(=O)c1ccccc1S2(=O)=O, CC1=C(C(=O)NCc2cccc(F)c2)C2(CCCCCC2)OC1=O

From PubChem BioAssay AID1963576 (National Center for Advancing Translational Sciences (NCATS), 2024)
